Measured values published in PubChem BioAssay AID485294 (National Center for Advancing Translational Sciences (NCATS), 2010).
Hit rate of the full screen: of about 370,000 compounds, about 150 (0.041%) were called active. Inconclusive means that the source gave no clear call. Such entries were picked first, then a sample of the others. Calls come from the whole dose curve; as a rule, active = well fitted inhibition curve with a large enough effect; inconclusive = small, poorly fitted or top-dose-only effect; inactive = flat fitted curve, though single readings scatter. No potency is given beside an inconclusive call; the fits are too rough. Peptide text beside a SMILES is read from it. * marks the point of attachment. Cbz = O=C(OCc1ccccc1)*

Target: Beta-lactamase (Escherichia coli (strain K12)) (UniProt P00811)
Sequence of UniProt P00811 (P00811 whole entry, looked up): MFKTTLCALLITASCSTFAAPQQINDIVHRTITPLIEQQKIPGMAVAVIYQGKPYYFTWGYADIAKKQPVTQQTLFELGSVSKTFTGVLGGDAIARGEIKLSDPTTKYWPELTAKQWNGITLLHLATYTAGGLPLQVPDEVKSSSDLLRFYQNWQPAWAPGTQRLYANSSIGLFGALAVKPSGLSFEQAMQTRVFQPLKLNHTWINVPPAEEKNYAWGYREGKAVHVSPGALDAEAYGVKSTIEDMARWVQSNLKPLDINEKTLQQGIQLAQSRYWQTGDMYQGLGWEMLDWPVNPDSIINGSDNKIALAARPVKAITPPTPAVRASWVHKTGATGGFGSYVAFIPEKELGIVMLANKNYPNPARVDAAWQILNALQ
Assay: qHTS Inhibitors of AmpC Beta-Lactamase (assay with detergent); note: nearly all actives have a fitted effect of over 25% in size
Details: AmpC hydrolysis of nitrocefin, absorbance 480 nm, 0.01% Triton; series mostly up to 114 µM
Procedure, shortened: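 20 mM phosphate pH 7.0 + 0.01% (detergent screen) or 0.0001% Triton X-100; 5.3 nM AmpC reagent; cpd preinc 15 min RT; nitrocefin (800 uM stock) to start; A480 q20 s × 4 min; Activity was normalised to no-enzyme and no-compound control wells.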
Potency is the fitted concentration of half-maximal effect; tags give direction and shape of the fitted curve.

| Compound | Potency |
| --- | --- |
| COc1cccc(C(=O)Nc2nc(-c3ccc4c(c3)OCO4)cs2)c1 | inconclusive [inhibitor, full curve, poor fit] |
| Cc1ccc(S(=O)(=O)NCCOc2nc(N3CCOCC3)nc(N3CCOCC3)n2)cc1 | inconclusive [inhibitor, full curve, poor fit] |
| CC(C)Oc1ccc(S(=O)(=O)N2CCOCC2)cc1NC(=O)C(C)Oc1ccc(F)cc1 (stereo unspecified) | inactive |
| O=C(CCc1ccccc1)N1N=C(c2ccncc2)CC1(O)C(F)(F)F (stereo unspecified) | inconclusive [inhibitor, full curve, poor fit] |
| COc1ccc(C(=O)NCc2nnc(SCC(=O)Nc3cccc(OC)c3)o2)cc1 | inconclusive [inhibitor, full curve, poor fit] |
| COC(=O)c1sccc1S(=O)(=O)N(CC(=O)Nc1ccccc1F)c1ccccc1 | inactive |
| NCCCCCc1nnc(SCc2cccc(Cl)c2)o1 | inconclusive [inhibitor, full curve, poor fit] |
| COc1ccc(CC(=O)Nc2cccc(/C(C)=N/NC(=O)c3cccc([N+](=O)[O-])c3)c2)cc1 | inactive |
| COc1ccc(C(=O)CC2(C(=O)O)CCCCC2)cc1 | inconclusive [inhibitor, partial curve, poor fit] |
| COc1cc(-c2nnc(COC(=O)C3c4ccccc4Oc4ccccc43)o2)cc(OC)c1OC | inconclusive [inhibitor, full curve, poor fit] |
| Oc1ccc(Br)cc1/C=N/Nc1nc(N2CCCCC2)nc(N2CCOCC2)n1 | inactive |
| CN(Cc1ccccc1)c1ncnc2c1nnn2C | inactive |
| COCCn1c(SCC(=O)NCCc2ccccc2)nnc1-c1ccco1 | inconclusive [inhibitor, partial curve] |
| COc1ccc(C2c3ccc(O)cc3Oc3ncn(Cc4ccco4)c(=N)c32)cc1OC (stereo unspecified) | inactive |
| COc1ccc(C(=O)OCC(=O)NC(=O)NCc2ccccc2)cc1[N+](=O)[O-] | inactive |
| CCCN1CCN(CCCNC(=O)c2ccc3nc(N4CCCCC4)sc3c2)CC1 | inconclusive [inhibitor, full curve, poor fit] |
| COc1ccc2nc(SC)c(C#N)cc2c1 | inactive |
| Cc1cccc(CCNC(=O)C2CCN(S(=O)(=O)c3c(C)noc3C)CC2)c1 | inconclusive [inhibitor, full curve, poor fit] |
| COc1ccc(CC(=O)Nc2c3c(nn2-c2cccc(C)c2C)CS(=O)C3)cc1OC (stereo unspecified) | inconclusive [inhibitor, partial curve, poor fit] |
| O=C(CN1C(=O)c2ccccc2C1=O)Nc1ccccc1C(=O)NC1CCCCCC1 | inconclusive [inhibitor, full curve, poor fit] |
| Cc1cccc(NC(=O)NCc2ccc3c(c2)cc(C)n3C)c1 | inconclusive [inhibitor, partial curve, poor fit] |
| COc1cc(NC(=O)c2cccc(NC3=NC4CS(=O)(=O)CC4S3)c2)cc(OC)c1OC (stereo unspecified) | inactive |

| Compound | Potency |
| --- | --- |
| Cc1ccc(S(=O)(=O)CCC(=O)Nc2ccccc2C)cc1 | inactive |
| CCc1cccc(C)c1NC(=S)NCCc1c(C)[nH]c2ccc(C)cc12 | inactive |
| Clc1ccccc1Nc1nc(-c2ccncc2)nc2ccccc12 | inactive |
| O=C(Cn1nnc2c(cnn2-c2ccccc2)c1=O)NCc1cccs1 | inconclusive [inhibitor, full curve, poor fit] |
| COc1ccc(N2CCN(C(CNC(=O)C(=O)NCCCn3ccnc3)c3ccco3)CC2)cc1 (stereo unspecified) | inconclusive [inhibitor, full curve] |
| CC(NC(=O)c1cn(C(C)c2ccccc2F)nn1)c1ccncc1 (stereo unspecified) | inconclusive [inhibitor, single point] |
| O=C(Nn1cnnc1)c1cc(-c2ccccn2)nc2ccccc12 | inconclusive [inhibitor, partial curve, poor fit] |
| Cc1cccc(N2CCN(C(c3ccc(N(C)C)cc3)c3nnnn3C(C)(C)C)CC2)c1C (stereo unspecified) | inconclusive [inhibitor, single point] |
| Cn1c(SCC(=O)Nc2nccs2)nnc1-c1ccccn1 | inactive |
| CCOc1ccc(N(CC(=O)N2CCOCC2)S(=O)(=O)c2ccc(F)cc2)cc1 | inconclusive [inhibitor, full curve, poor fit] |
| COc1ccc(OC)c(C2CC(=O)NC(SC)=C2C#N)c1 (stereo unspecified) | inconclusive [inhibitor, full curve, poor fit] |
| CCOC(=O)c1ccc2c(c1)n(CC)c(/C=C/Nc1ccccc1)[n+]2CC | inactive |
| O=C(Nc1ccc(Cl)c(-c2nc3ccccc3[nH]2)c1)c1cccnc1 | inconclusive [inhibitor, full curve, poor fit] |
| Cc1ccc(NC(=O)CO/N=C/c2ccc(N(C)C)cc2)cc1 | inconclusive [inhibitor, full curve, poor fit] |
| COc1ccc(S(=O)(=O)N(CC(=O)Nc2cc(Cl)ccc2C)Cc2ccccc2)cc1OC | inactive |
| CC(=NCCN1CCOCC1)C1=C(O)c2ccccc2C1=O | inconclusive [inhibitor, full curve, poor fit] |
| COCCCn1c(-c2ccc(OC)cc2)nc2nc3ccccc3nc21 | inconclusive [inhibitor, partial curve] |
| Cc1onc(-c2c(F)cccc2Cl)c1C(=O)NCc1cccs1 | inconclusive [inhibitor, full curve, poor fit] |
| Cn1nnnc1SCCNCc1cccc2ccccc12 | inconclusive [inhibitor, full curve] |
| CC(=O)Nc1ccc(NC(=O)C(Cc2ccccc2)NS(=O)(=O)c2ccc3c(c2)oc(=O)n3C)cc1 (stereo unspecified) | inconclusive [inhibitor, single point] |
| O=C(NC(Cc1ccccc1)c1nc2ccccc2[nH]1)c1cccc([N+](=O)[O-])c1 (stereo unspecified) | inactive |
| CCOC(=S)SCc1cn2ccc(C)cc2n1 | inactive |

| Compound | Potency |
| --- | --- |
| COc1ccc(/C=C/C(=O)c2oc3ccc(F)cc3c2C)cc1 | inconclusive [inhibitor, full curve, poor fit] |
| CCC(C)NS(=O)(=O)c1ccc(NC(=O)c2c(-c3ccccc3)noc2C)cc1 (stereo unspecified) | inconclusive [inhibitor, full curve, poor fit] |
| CCN(CC)S(=O)(=O)c1cc(C(=O)NC2=NCCS2)ccc1Cl | inconclusive [inhibitor, full curve, poor fit] |
| CCCCCn1c(=O)c(C(=O)NCCc2ccccc2)c(O)c2ccccc21 | inconclusive [inhibitor, partial curve, poor fit] |
| CCc1cc(=O)oc2cc(C)cc(OCC(=O)N3CCC(C(=O)O)CC3)c12 | inconclusive [inhibitor, full curve] |
| Cn1c(=O)c2sccc2n2c(CCCC(=O)NC3CCCCC3)nnc12 | inactive |
| c1ccc(C2CCC3(CC2)Oc2ccccc2C2CC(c4cccnc4)=NN23)cc1 (stereo unspecified) | inconclusive [inhibitor, full curve] |
| O=C(O)/C=C/c1cn(Cc2ccccc2Cl)nc1-c1ccccc1 | inactive |
| C=CC(C)Sc1nc2c(c(=O)n(C)c(=O)n2C)n1Cc1ccccc1Cl (stereo unspecified) | inconclusive [inhibitor, partial curve, poor fit] |
| COc1cccc(Oc2cnc(N)nc2-c2ccc(OC)cc2O)c1 | inconclusive [inhibitor, full curve, poor fit] |
| COc1ccc(NCc2cc3cc4c(cc3n(CC(=O)Nc3ccc(C)c(C)c3)c2=O)OCO4)cc1 | inactive |
| O=C(OCC(=O)N1CCCCC1)c1cc2ccccc2cc1O | inconclusive [inhibitor, full curve, poor fit] |
| CC(C)C(C)NC(=O)COc1ccc(S(=O)(=O)N2CCOCC2)cc1[N+](=O)[O-] (stereo unspecified) | inconclusive [inhibitor, full curve] |
| O=C(c1ccc(Cl)c(S(=O)(=O)NCc2ccco2)c1)N1CCN(c2ccc(F)cc2)CC1 | inconclusive [inhibitor, full curve] |
| CC(C)Cc1ccc(C(C)NC(=O)Cc2ccc(S(=O)(=O)N3CCOCC3)s2)cc1 (stereo unspecified) | inconclusive [inhibitor, full curve, poor fit] |
| COC(=O)C1CCN(Cc2cc(=O)oc3cc(OC)ccc23)CC1 | inconclusive [inhibitor, single point] |
| COc1ccc2cc3cc(C(=O)N4CCCC(C)C4)oc3nc2c1 (stereo unspecified) | inactive |
| N#Cc1ccc2[nH]c(CO)c(-c3ccccc3)c2c1 | inconclusive [inhibitor, full curve, poor fit] |
| CC(=O)OCC(=O)N1CCN(c2ccc([N+](=O)[O-])cc2)CC1 | inconclusive [inhibitor, full curve, poor fit] |
| CCc1cc2ccc(C)cc2nc1SCC(=O)c1ccc(NC(C)=O)cc1 | inconclusive [inhibitor, partial curve, poor fit] |
| CCOc1ccc(C2NC(=O)C(C#N)=C(S)N2c2ccc(C)cc2)cc1OC (stereo unspecified) | inconclusive [inhibitor, single point] |
| CCC(C)C(NC(=O)C(C)NC(=O)CNC(=O)CNC(=O)OCc1ccccc1)C(=O)OC (stereo unspecified) (Cbz-GGAI-OMe; configuration not given here) | inconclusive [inhibitor, full curve, poor fit] |
